# Assay results as given in ChEMBL document CHEMBL4888484, “Replenishing the malaria drug discovery pipeline: Screening and hit evaluation of the MMV Hit Generation Library 1 (HGL1) against asexual blood stage Plasmodium falciparum ,using a nano luciferase reporter read-out” (2022).
# Screen size: about 150,000 compounds; about 540 (0.36%) showed an effect of 50% or more. The list shows a part of the results.
# System: Plasmodium falciparum
# Experiment: Primary screen in NF54 nanoGlo assay, in single point, at 2uM, 72h; a lower Z score goes with more inhibition
# Format: functional, Erythrocyte
# Conditions: timepoint 72 hour
Structure (SMILES),% Inhibition [%],Z score
CC(C)Cc1noc(Cn2cnc3cc(F)c(F)cc32)n1,-4,0.53
CN(C)C[C@H](NS(=O)(=O)C1CC1)c1ccc(Cl)cc1,-7,0.74
CCc1ccc(S(=O)(=O)N[C@H]2CS(=O)(=O)C[C@@H]2O)cc1,2,-0.27
C#CC1(O)CCN(C(=O)Nc2ccc(N3CCCCC3)cc2)CC1,-7,0.92
Cc1ccc(N(CC(=O)Nc2ccc(OCc3ccccc3)cc2)S(=O)(=O)c2ccccc2)cc1,1,-0.19
Cc1cc(=O)n(CC(=O)Nc2cccc(Cl)c2)c(N2CCc3ccccc3C2)n1,-14,1.28
O=C(NCC1CCOCC1)c1ccc2n[nH]c(=O)n2c1,32,-0.58
COc1ccc(Cc2ncc3c(n2)CN(C(=O)[C@@H](C)Cn2cncn2)C3)cc1,-2,0.46
COc1ccc(CCC(=O)N2C[C@@H]3CN(C(C)C)C[C@]3(C(=O)N3CCCC3)C2)cc1,-8,1.03
COC(=O)CCN(CC(=O)NCc1cccnc1)CC(C)C,-16,2.09
CN1N=C(C(=O)N2CCC[C@H](c3[nH]ncc3Cc3ccccc3)C2)CCC1=O,3,-0.53
Cc1ccc(-c2cn3ccn(-c4ccc5c(c4)CCC5)c(=O)c3n2)cc1C,-3,0.45
CC(CC1CCCO1)NC(C)c1ccco1 (stereo not drawn),13,-1.61
O=c1c(C(F)(F)F)cccn1Cc1ncccn1,-9,1.69
O=C1C[C@H](c2ccccc2)c2cnn(Cc3cccs3)c2N1,-2,0.32
COc1cccc(CN2CCC[C@@](O)(CN3CCCCC3)C2=O)c1OC,2,-0.36
Cc1ncc([C@H](C)NCC(C)(C)CC2CCOCC2)s1,-17,2.45
CCc1ccc(C2CN3C(=O)N(Cc4ccccc4)C(=O)[C@]3(C)c3[nH]c4ccccc4c32)cc1 (stereo partly drawn),-3,0.42
NC(=O)CN1C(=O)CCN(c2ccccc2)C1=O,-47,5.52
Cc1ccc(C)c(CNc2cc(C(=O)N3CCc4ccccc4C3)cc(S(=O)(=O)N(C)C)c2)c1,-18,2.13
COc1ccccc1N1CCN(C2CCN(Cc3ccncc3)CC2)CC1,32,-3.67
Cc1ccc(NC(=O)Nc2cc(C)cc3c(-c4ccccc4)c(C(=O)NC[C@H]4CCCO4)[nH]c23)cc1,31,-3.49
CC(C)S(=O)(=O)N1CCC[C@H](CCc2nnc(C3CCOCC3)o2)C1,-16,2.16
C[C@H](NC(=O)OC(C)(C)C)c1nnco1,1,-0.11
CC(C)(C)OC(=O)Nc1ccc(F)c(NC(=O)[C@@H]2CCC(=O)N2)c1,-5,0.73
COCC1(C(=O)Nc2ccc3nscc3c2)CCOCC1,3,-0.33
CCCc1nnnn1C[C@H]1CCCN(S(C)(=O)=O)C1,-12,1.59

Structure (SMILES),% Inhibition [%],Z score
CNC(=O)Cc1nc(C2CC3CCC2C3)cs1 (stereo not drawn),-4,0.61
O=C(NS(=O)(=O)Cc1ccc2c(c1)COC2)C1CC12CCOC2 (stereo not drawn),5,-0.76
CCN(C(C)=O)c1nc2ccccc2n(CC(=O)Nc2cc(C(F)(F)F)ccc2Cl)c1=O,-9,1.4
O=C(NC(=O)c1ccc(F)cc1F)Nc1nc(-c2ccccc2)cc(C(F)(F)F)n1,-2,0.37
CC(=O)Nc1ccc(N2C(=O)c3cc(-c4ccco4)nn3C[C@@]2(C)C(=O)NCc2cccc(C)c2)cc1,-16,2.55
CCN(CCCNC(=O)NC1CCCC1)S(C)(=O)=O,-6,0.67
O=C(Nc1cnn(CCN2CCCCC2)c1)[C@H](O)c1ccccc1,-9,0.88
Cc1ccc(CCNC(=O)NCC(=O)Nc2ccc(F)cc2)cn1,-7,1.15
C[C@@H](Cn1ccnc1)NC(=O)c1ccccc1-c1ccccc1,-11,1.58
Cc1nc(-c2c(C)noc2C)sc1C(=O)N1CC(C)[S+]([O-])C(C)C1 (stereo not drawn),-1,0.1
CCCCN(C)C(=O)c1nccnc1NC(=O)c1ccccc1,-9,1.29
O=C(c1csc(S(=O)(=O)N2CCCc3ccccc32)c1)N1CCOCC1,2,-0.19
Cc1noc(C)c1CC(C)NC(=O)NC(C)(CO)C1CCCCC1 (stereo not drawn),-9,1.26
Cc1cnc(NC(=O)c2cc(O)nc(CC(C)C)c2)[nH]1,-1,0.11
Cc1cnn(CC(=O)NCCN2CC=CCC2)c1,-15,2.3
O=C(NC[C@H]1Cn2ccnc2CO1)NC1CCCCC1,-18,2.65
O=C([C@@H]1CCCCN1C(=O)COc1ccc(Cl)cc1Br)N1CCCC1,-7,0.71
Cc1noc([C@H](C)ONC(=O)C2CCCC2)n1,-5,0.64
COc1ccc(CC(=O)Nc2nc(-c3ccc(OC)c(OC)c3)ns2)cc1,-14,2.6
CC1CN(C(=O)c2nccn3ccnc23)C1,-7,0.91
CN(CC(=O)NCc1cccs1)C(=O)CNC(=O)OCc1ccccc1,-4,0.52
COc1ccccc1C(C)(C)c1noc([C@@]2(C)CCNC(=O)C2)n1,-3,0.4
CCC(=O)Nc1cc(NC(=O)N(C)Cc2cnc(NC)nc2)ccc1OC,-13,1.81
CCc1noc(CN(CC)CCn2c(=O)cc(C)[nH]c2=O)n1,-12,1.11
O=C1CC(c2ccccn2)=NN1C1CCC(F)(F)CC1,-9,1.19
Cc1ccc(-c2nc(-c3ccc(S(=O)(=O)N4CCC(C)CC4)cc3)no2)cc1F,-5,0.82
CC[C@H](NC(=O)CCc1cnn(C)c1)c1ncnn1C,-10,2.08
